According to US9457029B2, “Treatment of genotyped diabetic patients with DPP-IV inhibitors such as linagliptin” (Boehringer Ingelheim International GmbH, priority 2009, dated 2016):

Tested on: Japanese patients with type 2 diabetes mellitus
Assay: 12-week placebo-controlled study of linagliptin monotherapy in Japanese patients
Assay type: in vivo, human
Conditions: for FPG, difference of adjusted mean change from baseline vs. PBO: after 12 weeks
Experimental: Of those; 9.4%, 8.8% and 10.0%, respectively, are assessed as being drug-related. […] Body weight is unchanged with both LI 5 mg and 10 mg, −0.39 and −0.06 kg, respectively, which is not sigificantly different vs. PBO (−0.04 kg).

SMILES: CC#CCn1c(N2CCC[C@@H](N)C2)nc2c1c(=O)n(Cc1nc(C)c3ccccc3n1)c(=O)n2C [linagliptin, 1-[(4-methyl-quinazolin-2-yl)methyl]-3-methyl-7-(2-butyn-1-yl)-8-(3-(R)-amino-piperidin-1-yl)-xanthine]
- insulin secretion as indicated by changes in the proinsulin/insulin ratio (LI 5 mg and 10 mg, 12 weeks): significantly improves insulin secretion
- FPG, difference of adjusted mean change from baseline vs. PBO (LI 5 mg): -19.7 mg/dL
- difference of adjusted mean change from baseline in HbA1c vs. PBO (LI 10 mg qd, week 12): −0.88%
- body weight change (LI 10 mg, 12 weeks): -0.06 kg
- proportion of patients whose HbA1c levels lower by at least 0.5% (LI 10 mg, 12 weeks): 59.9%
- FPG, difference of adjusted mean change from baseline vs. PBO (LI 10 mg): -20.4 mg/dL
